Laboratory results published in the supplement of paper PMC12889115.
The other results are listed elsewhere or left out. Cut-off read from the data, not from the text of the source: active = 25% or less and inactive = the rest. Most values come without repeats; read them as rough.

The compounds below were run on Salmonella enterica serovar Typhimurium SL1344 (assay: intramacrophage bacterial GFP load (SAFIRE), percent of DMSO control (% of DMSO); higher = more intracellular bacteria (less inhibition)). Conditions: 25 µM; system: infected RAW 264.7 macrophages.
Method: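 Secondary screen of the 553 primary hits at 25 µM. (i) S. Typhimurium SL1344 grown in Mueller-Hinton broth with 0.5 µg/mL polymyxin B, OD600 read after 18 h. (ii) SAFIRE assay: RAW 264.7 macrophages infected with S. Typhimurium sifB::gfp (MOI 30); compound added 2 h post-infection; cells fixed at 18 h; GFP-positive pixel fraction per macrophage imaged by confocal microscopy and expressed as % of DMSO control.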
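Note: compounds tested were the hits of an earlier 50 µM broth growth screen of a drug-like diversity library run with polymyxin B.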

Intramacrophage bacterial GFP load, active:
CCCCn1c(CN2CCCC(C(C)=O)C2)cnc1S(=O)(=O)CCCC(C)C (stereo not given) 22.1
CCOC(=O)C1(Cc2ccccc2Cl)CCN(Cc2nccn2CC)CC1 19.2
CCOc1ccc2nc(N3CCC(C(=O)N4CCN(C5CCCCC5)CC4)CC3)nc(C)c2c1 21.6
COc1cccc(CN2CCc3nnc(C(CC(C)C)NC(=O)c4cc(C)cc(C)c4)n3CC2)c1O (stereo not given) 22.4
CCOC(=O)C1(C/C=C/c2ccccc2)CCCN(C(=O)CCn2ccc(C)n2)C1 (stereo not given) 3.1
CN(Cc1ccccc1)C1(C(=O)N2CCC[C@H]2CO)Cc2ccccc2C1 24
CCc1ccc(CN(C)C(=O)c2cn(CC3COc4ccccc4O3)nn2)cc1 (stereo not given) 19.6

Intramacrophage bacterial GFP load, inactive:
Cc1cnccc1CN(C)C(=O)CC(c1cccc(O)c1)c1cccc(Cl)c1 (stereo not given) 72.4
Cn1c(CNc2nncc(-c3cccc(Cl)c3)n2)nc2ccccc21 57.2
O=C(Nc1cccc(-c2ccc(F)cc2)c1)C1CCCN(C(=O)C2CCC2)C1 (stereo not given) 124
COc1ccc(-n2ncc(C(C)NS(=O)(=O)c3cccc4nsnc34)c2C)cc1 (stereo not given) 177
CC1CCN(Cc2nc(-c3cccc(Cl)c3)no2)CC1 33.5
O=C(CCc1nnc(-c2ccc(-c3ccccc3)cc2)o1)N1CCCCCCC1 102
O=C(NCCC1=CCCCC1)c1coc(COc2ccccc2)n1 123
CCC1CN(Cc2ccc3ncccc3c2)Cc2cc(OC)ccc2O1 (stereo not given) 35.7
COc1ccc(OC)c(-c2cc(Cl)c3c(c2)CC(CNC(=O)c2cc(C)oc2C)O3)c1 (stereo not given) 173
Cc1ccc(OCc2cc(C(=O)N(C)C3CCCCC3)no2)cc1C 140
CO[C@H]1[C@H](NC(=O)c2ccncc2)c2ccccc2C12CCN(C(=O)c1ccc(CC(C)C)cc1)CC2 172
Cc1ccccc1-c1nc(CN2CCOc3ccc(Cl)cc3C2)c(C)o1 33.2
O=C(NCC1OCCc2ccccc21)c1coc(COc2ccccc2)n1 (stereo not given) 139
CCOC(=O)C1(Cc2ccccc2F)CCCN(C(=O)c2cc(OC)cc(OC)c2)C1 (stereo not given) 54.3
Cc1nonc1CN(C)C(=O)CC(c1ccccc1)c1cccc(Cl)c1 (stereo not given) 39.6
COc1ccc(-c2cnnc(NCc3c[nH]nc3-c3ccc(F)cc3)n2)cc1OC 160
COc1ccc(OCc2cc(C(=O)NC(CO)C(C)C)no2)c2ccccc12 (stereo not given) 74.8
COCCCN1C(=O)CC(CC(=O)N2CCN(c3ccccc3C)CC2)(c2ccccc2OC)C1=O (stereo not given) 57
Cc1ccn(CCC(=O)N2CCC3(CC2)CC3C(=O)NCCC(c2ccccc2)c2ccccc2)n1 (stereo not given) 103
C#Cc1cccc(C(=O)N2CCc3onc(-c4cccc(F)c4)c3C2)c1 140
CC(NC(=O)CCc1ccccc1)c1nnc2n1CCN(Cc1ccc3c(c1)Cc1ccccc1-3)CC2 (stereo not given) 34.7
CCCCN(Cc1ccccc1)C(=O)CCc1nnc(C(OC)c2ccccc2)o1 (stereo not given) 136
CCOC(=O)CN(C)c1ccc(-c2nc(-c3cccc(OC)c3OC)no2)cn1 119
CCOC(=O)C1(CCCc2ccccc2)CCN(C(=O)C2CC=CCC2)CC1 (stereo not given) 72.1
CN(C(=O)CC(c1ccccc1)c1ccccc1Cl)C1CCOCC1 (stereo not given) 64.5
CN(C(=O)c1cccs1)C(Cc1ccccc1)C1CCN(C(=O)c2ccc(-n3cccn3)cc2)CC1 (stereo not given) 119
COc1ccc(-c2noc(CN(C)Cc3cnn(-c4ccccc4C)c3)n2)cc1 114
O=C(NC(c1ccccn1)C(F)(F)F)c1cn(C2CCCCC2)nn1 (stereo not given) 83.6
O=C(c1ccc(Cn2cnnn2)cc1)N1CCCC(CCc2ccccc2)C1 (stereo not given) 102
O=C(c1ccc(NC2CC2)nc1)N1CCCC(c2ccccc2)CC1 (stereo not given) 122
CC(C)Oc1cccc(C(=O)C2CCCN(C(=O)/C=C/c3cccs3)C2)c1 (stereo not given) 88.6
CCC1CN(Cc2sccc2C)Cc2cc(OC)ccc2O1 (stereo not given) 53.2
COc1cc(CC2(CCC(=O)N3CCC(Oc4cccc(Cl)c4)CC3)CCC(=O)N2)ccc1F (stereo not given) 65.9
